Laboratory results: the RNAGym collection of RNA variant scans (doi:10.1073/pnas.2313332121)
Variants at the floor of the assay are shown more often than the library holds them.

B1: TPR 5TU (parent)
chain: GGAUCUUCUCGAUCUAACAAAAAAGACAAAUCUGCCACAAAGCUUGAGAGCAUCUUCGGAUGCAGAGGCGGCAGCCUUCGGUGGCGCGAUAGCGCCAACGUUCUCAACUAUGACACGCAAAACGCGUGCUCCGUUGAAUGGAGUUUAUCAUG

Variants of: B1
Assay: polymerase ribozyme fitness, log enrichment relative to wild type (log ratio); higher = more active; in vitro selection for triplet polymerase activity
In short: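 To select mutant libraries of each subunit of a heterodimeric triplet polymerase ribozyme, built by PCR and transcribed, each was annealed with a biotinylated primer, partner subunit and triplets, then incubated frozen at −7 °C. Extended constructs were gel-excised, captured on streptavidin beads and amplified by RT-PCR, in one round carried out in triplicate. Illumina sequencing of input and output libraries kept genotypes with ≥10 input reads and ≥1 read per output. Fitness is the base-2 logarithm of genotype enrichment relative to wild-type enrichment, from inverse-variance-weighted replicate averages.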

Polymerase ribozyme fitness (log ratio), ≤ -4.2:
A20C A28U U53C G67U G68C G92A A147C
A20C A30U G80A G83C C87U C108A
A20C A40U G86U C87G C105U G141U
A20C A49C G62C C85G A150G
A20C A52G G74A G84U C87A U90G A107C
A20C A91C C95G C96G U148G
A20C C35A G48A C114G
A20C C36G G58A C69G U148A
A20C C36U G48U C57G A107G A113G C125A
A20C C43A U61C C87U A150C
A20C C54U U78A C93A A97U
A20C C63G A64G
A20C C79G U127G U145A
A20C C85U U151A
A20C G34U A60C G83C C99G
A20C G42A U56A G83A
A20C G48A C57A U61A G62A G117A
A20C G59A G92U A97U U111C C114G
A20C G68A C79U C85A A110G
A20C U33A U44A A49C G92U A97G U127A
A20C U33G C43A U45A C69U A119C
A20C U44C U77G G94U
A20C U45A C93G
A20C U55G A60G U90G C96A
A20G A21C A23C C38U C51A U77G A97U
A20G A21C A49C U56A A64C C76A C85G U102G U151A
A20G A21C C79G A121U
A20G A21U C93G A97U C116U
A20G A21U G42A G83A A91U U101G C125A
A20G A24G C87U A120G U135A
A20G A26C A41G A49C G88A A110C G136A
A20G A26U A29C G48U U55G C76A U77G A150C
A20G A29G G50C U53A U56A U109G C125A G136A U144G
A20G A30U U53A C54U G67C A110U
A20G A40U G74C C93A
A20G A41C A47G U78C G133U U144C
A20G A60C U61A G80A C125G
A20G C27G A47G A52G A60G U61A U90A A91G C93G C105G
A20G C32A U33C U55G U56A G84U U101G C103U C105G G143A
A20G C51G G67C G83A C87A
A20G C76A G81A C87G C118A A138G
A20G C85G U90G
A20G G25C G42C G71U C75A G80A C103G A106U C108A
A20G G34U C54G G141C
A20G G34U G48A G68A
A20G G46A G92U A107G C114A
A20G G59A G68C G94A G128C
A20G G68U G124A
A20G G140A U144G
A20G U44A A64C C76A G143C U144G
A20G U45A G50U G81A C85U G133A
A20U A21G G74A C79U C85A
A20U A26C C35A C57A U61A A91U
A20U A26U G42U A49G A107U G141C
A20U A26U G84U
A20U A28U A49C U55A C72U U135C
A20U A28U U31A A52G G74A G94U A98G
A20U A29U G46A G58U C76A G92C C103G G143U
A20U A29U G58C U77A U82A A89C C99A C118A
A20U A30U C35A G68U
A20U A37C G128A
A20U A40G U44A C87A C114U C129G G152U
A20U A40U C54A C72A U111C C114G
A20U A41G U44A G67A C79U G86C
A20U A49C G58C C87G
A20U A49U A89G C95U C105A U146A
A20U A49U C76A C87A A138U A147U
A20U A52U C79U C99G U145A U146A
A20U A60G C85U U135G
A20U A66C
A20U A73U C93G A121G A142G
A20U A89U C132A G140A
A20U A91U C96G U127C
A20U C27A C95U
A20U C27G U61A G88C G126C
A20U C36G G59C G83A A98U A107C
A20U C36U C54G G81C G92A C99U C149A
A20U C36U G92A
A20U C38A C43G C93G G140A U145C
A20U C43G C54G G67A U77C
A20U C43U A49C A52U A66C A91U A113C
A20U C51A G86C
A20U C57G G70A U101G U144C
A20U C75U A115G U135G G140C
A20U C87G
A20U G25C A28C C35A G48U C95U A98C G117C
A20U G25U G58A U135A G136U
A20U G42A G86C G126U A150C
A20U G48A G50A G67A G88A C95A C149U
A20U G48A U82A C95A A115U U135G
A20U G48C A52U G58U G62A G83A A107U
A20U G50A C95G
A20U G50C
A20U G50U G67A A91C C114U
A20U G58A A91C
A20U G58A C87A A106C
A20U G70C C75A
A20U G70U G88C
A20U G81C A91U C96A
A20U G84A C108U G117A
A20U G92A C108U G140A
A20U U45C U53A G92A U135C A147U
A20U U53G
A20U U56A A64U G83C U145G
A20U U56G A60U C87A C125U
A20U U61A G92A U144C
A21C A22U C38U A60U G83C U109G A137C
A21C A29U C38G C72G C95U U130C
A21C A30U C72U G88U G141C U146C
A21C A37U C43U C99U G126A G141A
A21C A66U A73C G86C C87A C96A C123G U148C
A21C A91C
A21C A107G A115G C118U
A21C C32A G50C C85U G88C C96U C108G
A21C C32G A37U A49G C57U C75G G84A A107C
A21C C32G C76A A137G G143A C149U
A21C C38A A49U G83C C132A
A21C C43U G70A G94A C95A
A21C C57U A91U
A21C C69A C87G A98U
A21C C85U A91C A98C
A21C C103A G117U A121C U148A C149G
A21C C103G U139C G141C A147C
A21C G25C A47C C87A
A21C G25U U44A G84C A97G G133A
A21C G48C C51U U61G C95A U111G
A21C U31A C54G U78A A91C A115C
A21C U31A C79G
A21C U44C C51U C54G G94C U144C C149G
A21C U44G C57A C93A C118G G124U
A21C U55G G128A
A21C U61A C75U C93U G140A
A21G A23C U61A C96A G117U G143C
A21G A26C A52U C129G U135C
A21G A28U G92U A120U
A21G A29C C85G A121G A138G U151C
A21G A29U A30C U55A G59U U101C G124U G141A
A21G A30G G68A A110C U135C
A21G A37G U45C C57G A60U C76A C132G G141C G152U
A21G A47U U82A C96U C99U A110G G128A
A21G A49C
A21G A49U C76U U82A C116G
A21G A52G U77G C108U A115G U127G
A21G A66C C96A A97G C103A C125A U144A
A21G C27A C51U C54U G58A
A21G C27G U33G A41C A97G C99G C105G A115U
A21G C27U A37U G65U A97U
A21G C27U C57U A73U A98U U109C
A21G C35A A52C G58C C95U
A21G C36A C75A G86C A115G
A21G C43A C76U G92U
A21G C75U C76U C85A C93A
A21G C76A G88A G126A C131U A147C
A21G C93U C103G A122C U127G U146A
A21G G58A A73G G84A C129A G141A
A21G G62A G86C C116G U135C
A21G G86A G88C C96G G100U C116A
A21G U31A G58C C87G C95U A115G A138U
A21G U53A G74A A89G G94C C131A
A21U A22C G42C C85G U102G A142U
A21U A22G U53A U56A G71C C99U C125G G152A
A21U A22U A28C U33G U145G
A21U A22U G50A U55G G65U A113C U134A
A21U A24U C38G U56A A64U C103G U134C
A21U A26C A60U U104A
A21U A26G A52C C54U G67C C93A
A21U A26G G81A
